We go through five molecules from publication PMC5797217, “UFD-2 is an adaptor-assisted E3 ligase targeting unfolded proteins” (Nature Communications, 2018).

Experiment [1] concerns the target T1, C-terminally Strep-tagged UFD-2 (C. elegans) (UniProt Q09349).
T1 sequence: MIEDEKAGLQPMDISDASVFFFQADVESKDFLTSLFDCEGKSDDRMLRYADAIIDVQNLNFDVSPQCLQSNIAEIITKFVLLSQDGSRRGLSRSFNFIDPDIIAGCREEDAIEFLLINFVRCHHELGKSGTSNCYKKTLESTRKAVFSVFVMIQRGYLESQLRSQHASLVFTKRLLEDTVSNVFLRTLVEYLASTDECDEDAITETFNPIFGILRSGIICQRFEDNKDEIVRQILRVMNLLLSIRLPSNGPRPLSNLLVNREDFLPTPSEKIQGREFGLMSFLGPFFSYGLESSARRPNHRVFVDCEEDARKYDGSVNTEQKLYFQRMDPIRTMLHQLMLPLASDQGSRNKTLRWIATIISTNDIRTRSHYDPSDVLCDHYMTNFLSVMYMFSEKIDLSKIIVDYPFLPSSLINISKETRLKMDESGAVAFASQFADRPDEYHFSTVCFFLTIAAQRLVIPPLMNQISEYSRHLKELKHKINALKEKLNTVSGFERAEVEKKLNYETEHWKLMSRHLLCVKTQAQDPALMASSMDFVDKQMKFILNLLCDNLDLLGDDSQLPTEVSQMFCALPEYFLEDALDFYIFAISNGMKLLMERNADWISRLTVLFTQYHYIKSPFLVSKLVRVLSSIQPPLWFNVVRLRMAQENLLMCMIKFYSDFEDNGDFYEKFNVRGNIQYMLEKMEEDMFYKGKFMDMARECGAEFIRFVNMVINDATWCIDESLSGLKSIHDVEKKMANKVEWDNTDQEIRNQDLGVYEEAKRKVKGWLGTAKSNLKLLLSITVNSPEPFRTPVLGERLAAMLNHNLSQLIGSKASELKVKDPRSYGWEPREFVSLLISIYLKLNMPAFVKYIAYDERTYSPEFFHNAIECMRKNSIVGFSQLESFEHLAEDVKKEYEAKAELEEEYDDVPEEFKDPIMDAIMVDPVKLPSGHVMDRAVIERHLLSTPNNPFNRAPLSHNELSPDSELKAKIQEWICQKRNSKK
Nature of the experiment: pull-down; Strep-UFD-2 held on Strep-Tactin Superflow beads; His6-tagged UNC-45 proteins pre-incubated 60 min 27 °C, then with UFD-2 60 min 30 °C; 5 µM protein; 20 mM Tris pH 7.5, 50 mM NaCl; elution with desthiobiotin, Coomassie; both purified.

Experiment [2] addresses T1, C-terminally Strep-tagged UFD-2 (C. elegans). Description: pull-down; three proteins: His6-tagged UNC-45 pre-incubated with myosin (MHC-B motor domain) 60 min 27 °C, then with Strep-UFD-2 60 min 30 °C; Strep-Tactin beads; 5 µM protein; 20 mM Tris pH 7.5, 50 mM NaCl; Coomassie; both purified.

Results are given in words; binding and its absence hold for the method and conditions named. Some results given as binding are weak or reduced against the parent protein; the word gives no strength. Sequences can lack the tags named with a protein.

B1: UNC-45_(ΔUCS) (1-521), His6-tagged (domain or fragment, UniProt G5EG62 1-521)
chain: MVARVQTAEEIRDEGNAAVKDQDYIKADELYTEALQLTTDEDKALRPVLYRNRAMARLKRDDFEGAQSDCTKALEFDGADVKALFRRSLAREQLGNVGPAFQDAKEALRLSPNDKGIVEVLQRLVKANNDKIKQTTSLANKVTDMEKLAFRGEAKDTEQKMTALNNLLVLCRESESGATGVWNQGALVPFVLNLINDASENEEVTVTAIRILDETIKNSVRCMKFLAMHDPDGPKSVRFVCRLMCKKSTKDFVDATGILVQRVFNAMAKMDRQKEMKPDPEVAEANKIWIIRVLLELQEMLQDPKVGAVQRETCIDLFLKNLMHMDGGIPRGWSWKFVEERGLLALLDVASQIPELCEYPVSAETRQHVAICLQRLEEDMVFDTKRTIFKEKVDMFFNALISRCTNDDEGHKYRIKLSCFLITMLQGPVDIGINLITNDQLTPIMLEMAASQDHLMQGIAAELIVATVSKHERAINMLKVGIPVLRALYDSEDPTVKVRALVGLCKIGAAGGDDISKATMK
As to B1, the binding entry in experiment [1] was “binds”.

B2: UNC-45_(E781K) ts-mutant, His6-tagged (protein, UniProt G5EG62 1-961)
chain: MVARVQTAEEIRDEGNAAVKDQDYIKADELYTEALQLTTDEDKALRPVLYRNRAMARLKRDDFEGAQSDCTKALEFDGADVKALFRRSLAREQLGNVGPAFQDAKEALRLSPNDKGIVEVLQRLVKANNDKIKQTTSLANKVTDMEKLAFRGEAKDTEQKMTALNNLLVLCRESESGATGVWNQGALVPFVLNLINDASENEEVTVTAIRILDETIKNSVRCMKFLAMHDPDGPKSVRFVCRLMCKKSTKDFVDATGILVQRVFNAMAKMDRQKEMKPDPEVAEANKIWIIRVLLELQEMLQDPKVGAVQRETCIDLFLKNLMHMDGGIPRGWSWKFVEERGLLALLDVASQIPELCEYPVSAETRQHVAICLQRLEEDMVFDTKRTIFKEKVDMFFNALISRCTNDDEGHKYRIKLSCFLITMLQGPVDIGINLITNDQLTPIMLEMAASQDHLMQGIAAELIVATVSKHERAINMLKVGIPVLRALYDSEDPTVKVRALVGLCKIGAAGGDDISKATMKEEAVISLAKTCKKFLLETEKYSVDIRRYACEGLSYLSLDADVKEWIVDDSLLLKALVLLAKKAGALCVYTLATIYANLSNAFEKPKVDEEMVKLAQFAKHHVPETHPKDTEEYVEKRVRALVEEGAVPACVAVSKTESKNALELIARSLLAFAEYEDLRGRIIAEGGTVLCLRLTKEASGEGKIKAGHAIAKLGAKADPMISFPGQRAYEVVKPLCDLLHPDVEGKANYDSLLTLTNLASVSDSIRGRILKEKAIPKIEKFWFMTDHEHLRAAAAELLLNLLFFEKFYEETVAPGTDRLKLWVLYSAEVEEERLSRASAAGFAILTEDENACARIMDEIKSWPEVFKDIAMHEDAETQRRGLMGIANIMHSSNKLCSEIVSSEVFRVLVAVTKLGTINQERAGSTEQAKRGLEAAEKFGLIKATDREIYERENQMSTIQE
In the case of B2, the binding result in experiment [1] is “binds”.

B3: C. elegans MHC-B motor domain (1-790), His6-tagged (domain or fragment, UniProt P02566 1-790, looked up)
chain: MEHEKDPGWQYLRRTREQVLEDQSKPYDSKKNVWIPDPEEGYLAGEITATKGDQVTIVTARGNEVTLKKELVQEMNPPKFEKTEDMSNLSFLNDASVLHNLRSRYAAMLIYTYSGLFCVVINPYKRLPIYTDSCARMFMGKRKTEMPPHLFAVSDEAYRNMLQDHENQSMLITGESGAGKTENTKKVICYFAAVGASQQEGGAEVDPNKKKVTLEDQIVQTNPVLEAFGNAKTVRNNNSSRFGKFIRIHFNKHGRLASCDIEHYLLEKSRVIRQAPGERCYHIFYQIYSDFRPELKKELLLDLPIKDYWFVAQAELIIDGIDDVEEFQLTDEAFDILNFSAVEKQDCYRLMSAHMHMGNMKFKQRPREEQAEPDGTDEAEKASNMYGIGCEEFLKALTKPRVKVGTEWVSKGQNCEQVNWAVGAMAKGLYSRVFNWLVKKCNLTLDQKGIDRDYFIGVLDIAGFEIFDFNSFEQLWINFVNEKLQQFFNHHMFVLEQEEYAREGIQWVFIDFGLDLQACIELIEKPLGIISMLDEECIVPKATDLTLASKLVDQHLGKHPNFEKPKPPKGKQGEAHFAMRHYAGTVRYNCLNWLEKNKDPLNDTVVSAMKQSKGNDLLVEIWQDYTTQEEAAAKAKEGGGGGKKKGKSGSFMTVSMLYRESLNNLMTMLNKTHPHFIRCIIPNEKKQSGMIDAALVLNQLTCNGVLEGIRICRKGFPNRTLHPDFVQRYAILAAKEAKSDDDKKKCAEAIMSKLVNDGSLSEEMFRIGLTKVFFKAGVLAHLEDIRDEKL
notes: Myosin heavy chain B (MHC-B, UNC-54), C. elegans muscle myosin, motor domain residues 1-790, cloned from cDNA into pACEBac1; also called myosin; MHC-B head domain; source: High Five insect cells, purified (NiNTA, Streptactin wash fractions, SEC) or co-purified with UNC-45; not shown: His6, C-terminal, kept
For B3, in experiment [2], the binding result is “binds”.

B4: UNC-45_(GST-UCS) (525-961), His6-tagged (domain or fragment, UniProt G5EG62 525-961)
chain: VISLAKTCKKFLLETEKYSVDIRRYACEGLSYLSLDADVKEWIVDDSLLLKALVLLAKKAGALCVYTLATIYANLSNAFEKPKVDEEMVKLAQFAKHHVPETHPKDTEEYVEKRVRALVEEGAVPACVAVSKTESKNALELIARSLLAFAEYEDLRGRIIAEGGTVLCLRLTKEASGEGKIKAGHAIAKLGAKADPMISFPGQRAYEVVKPLCDLLHPDVEGKANYDSLLTLTNLASVSDSIRGRILKEKAIPKIEEFWFMTDHEHLRAAAAELLLNLLFFEKFYEETVAPGTDRLKLWVLYSAEVEEERLSRASAAGFAILTEDENACARIMDEIKSWPEVFKDIAMHEDAETQRRGLMGIANIMHSSNKLCSEIVSSEVFRVLVAVTKLGTINQERAGSTEQAKRGLEAAEKFGLIKATDREIYERENQMSTIQE
Take B4: in experiment [1], the binding entry is listed as “no binding (tested: 5 µM)”.

B5: UNC-45_(ΔTPR) (135-961), His6-tagged (domain or fragment, UniProt G5EG62 135-961)
chain: TTSLANKVTDMEKLAFRGEAKDTEQKMTALNNLLVLCRESESGATGVWNQGALVPFVLNLINDASENEEVTVTAIRILDETIKNSVRCMKFLAMHDPDGPKSVRFVCRLMCKKSTKDFVDATGILVQRVFNAMAKMDRQKEMKPDPEVAEANKIWIIRVLLELQEMLQDPKVGAVQRETCIDLFLKNLMHMDGGIPRGWSWKFVEERGLLALLDVASQIPELCEYPVSAETRQHVAICLQRLEEDMVFDTKRTIFKEKVDMFFNALISRCTNDDEGHKYRIKLSCFLITMLQGPVDIGINLITNDQLTPIMLEMAASQDHLMQGIAAELIVATVSKHERAINMLKVGIPVLRALYDSEDPTVKVRALVGLCKIGAAGGDDISKATMKEEAVISLAKTCKKFLLETEKYSVDIRRYACEGLSYLSLDADVKEWIVDDSLLLKALVLLAKKAGALCVYTLATIYANLSNAFEKPKVDEEMVKLAQFAKHHVPETHPKDTEEYVEKRVRALVEEGAVPACVAVSKTESKNALELIARSLLAFAEYEDLRGRIIAEGGTVLCLRLTKEASGEGKIKAGHAIAKLGAKADPMISFPGQRAYEVVKPLCDLLHPDVEGKANYDSLLTLTNLASVSDSIRGRILKEKAIPKIEEFWFMTDHEHLRAAAAELLLNLLFFEKFYEETVAPGTDRLKLWVLYSAEVEEERLSRASAAGFAILTEDENACARIMDEIKSWPEVFKDIAMHEDAETQRRGLMGIANIMHSSNKLCSEIVSSEVFRVLVAVTKLGTINQERAGSTEQAKRGLEAAEKFGLIKATDREIYERENQMSTIQE
As to B5, in experiment [1], the binding entry is on record as “no binding (tested: 5 µM)”.
